Publication PMC10668032
This is one part of the list. At the low end of the ranking, values are background and their order means little.

What follows are sequences tested against SIX1-Q177R homeodomain (UniProt Q15475) (assay: universal protein binding microarray). Details: Universal all-10-mer PBM (8x60K, AMADID 030236), 300 nM GST-tagged protein, Alexa Fluor 488 anti-GST; buffer, salt, pH and temperature not stated; high values mean tight binding; most listed sequences are background and not binding sites; double strand, one strand shown.

| Sequence | binding signal [E-score] |
| --- | --- |
| CCCTGTTC | 0.13 |
| AACAGAAG | -0.206 |
| CAGAGCAG | -0.107 |
| CCCATTCC | -0.0708 |
| AATGAGCT | -0.11 |
| GCCGAGCA | -0.292 |
| GCCTAGGA | -0.26 |
| AGTCTGCC | -0.0721 |
| CAACACCG | 0.467 |
| AGGGCGCC | -0.067 |
| GTAGCGAC | 0.113 |
| TCTTGCAA | -0.0994 |
| GCCGCACC | 0.157 |
| AACACCAG | 0.465 |
| TAAACGGA | -0.0317 |
| CGTAGACC | -0.0214 |
| AGATATTA | -0.23 |
| AATGTTCC | -0.191 |
| ATCAGGGG | 0.0933 |
| CGTCCGAC | -0.00297 |
| GGCGTGCA | 0.0176 |
| GTTGGACA | 0.245 |

| Sequence | binding signal [E-score] |
| --- | --- |
| ACCTGTTA | 0.0872 |
| AGGAGGTC | 0.0221 |
| CTACCAAG | -0.0313 |
| GACCCTAC | 0.116 |
| ATGAGTCC | -0.0865 |
| GTCATATA | 0.0597 |
| ATTTTCTG | -0.252 |
| AGGCCATG | -0.0955 |
| CTTCGAGA | -0.213 |
| GATACTGC | 0.158 |
| AGCGCACA | -0.039 |
| AACCACGA | 0.0662 |
| AACATAAA | -0.212 |
| CCATCTCG | 0.117 |
| CTGGAGTA | 0.125 |
| CTGCCCGC | 0.163 |
| GCGCGTTA | 0.0713 |
| GGTAACAA | -0.156 |
| CAGGAGGA | 0.0407 |
| AACATGAT | -0.205 |
| GCCCCACC | 0.0163 |
| ACCTTCGA | 0.037 |

| Sequence | binding signal [E-score] |
| --- | --- |
| AGACTTCG | -0.131 |
| TCCGAGAA | -0.127 |
| ATATTCTG | -0.0385 |
| AATCATTA | -0.114 |
| AACCTATT | -0.195 |
| ATTGTCCG | -0.128 |
| AAGGCAGG | 0.0787 |
| ACGCTGTA | -0.0745 |
| AAGGCAAG | -0.217 |
| GTCCTAAA | -0.0977 |
| AAGTTAAG | -0.182 |
| ATATACTG | -0.0962 |
| CAGTTCTC | -0.0947 |
| CATCGGAG | 0.111 |
| ATTCAGAC | -0.229 |
| ATTCGGGC | -0.168 |
| GGGGCTTA | 0.029 |
| CTTCATAC | -0.0249 |
| CTTTTCGA | -0.0831 |
| GCACAGCC | -0.0402 |
| CGACAACC | 0.0156 |
| CGGCTACG | 0.164 |

| Sequence | binding signal [E-score] |
| --- | --- |
| GACCCGAA | -0.0852 |
| CTCAATTC | -0.152 |
| TCAATCCA | 0.028 |
| CTTTGTGA | 0.00549 |
| ATCTTCAA | -0.0367 |
| ATGAAACA | 0.0085 |
| ACTATTCT | 0.0559 |
| CTAATAGA | 0.0326 |
| CGATGTAC | 0.254 |
| AAGCTGAA | -0.229 |
| AGTAACCA | -0.0886 |
| GAGCGCTC | -0.36 |
| ATGTAGTA | -0.0878 |
| AGTCTGTC | -0.298 |
| CTACGCAA | -0.133 |
| ACCAGGTC | -0.0954 |
| AGGGCCAA | -0.143 |
| CTCTAAGA | -0.00164 |
| CCTTTGCC | 0.0262 |
| CAAGAGTA | 0.17 |
| TAGGTTAA | 0.0604 |
| CAAACTCA | 0.0247 |

| Sequence | binding signal [E-score] |
| --- | --- |
| ATCCGTCG | 0.073 |
| TCGGTCCA | -0.23 |
| ACCGTCAA | -0.119 |
| TGCGGACA | -0.0429 |
| CCCATCCG | 0.198 |
| CGGACAAA | -0.0621 |
| CCGATAAC | 0.106 |
| CGAATGTC | -0.0209 |
| GCGTGGAA | -0.19 |
| CGATGAAC | -0.0244 |
| GTGAAGGA | -0.0293 |
| ACCTTAGT | -0.0401 |
| AAAGAGTA | -0.0397 |
| TACCCAGA | 0.144 |
| ACCAACCT | -0.0408 |
| CAAAGAAC | -0.0342 |
| CTTACTAA | -0.103 |
| GAATCACA | 0.12 |
| CCAATTAC | 0.126 |
| TCGACTAA | 0.0692 |
| AGTTCGTG | 0.147 |
| AAACTAGA | 0.163 |
